Source: the supplement of paper PMC10126150
Values marked as one replicate rest on one cluster of the flow cell; about a third of the high ones do not repeat.

system: ATP; assay: switch fluorescence ratio, 500 uM ATP over buffer (Cy3 cluster intensity, sum of 5 cycles each) (fold (ratio)); higher = stronger signal-on switching upon ATP binding; sequences stand for … in TCGTCGGCAGCGTCAGATGTGTATAAGAGACAGTTTTTTTTTTTTTTTTTTTTTTTTT…TC; conditions: aptamer strand: ATP DNA aptamer (quencher-CACCTGGGGGAGTATTGCGGAGGAAGG + anchor), 100 nM annealed; ATP concentration: 500 uM; one replicate
Outline: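 The fluorescence ratio divides summed target-cycle Cy3 intensity by summed buffer-cycle Cy3 intensity for each cluster and is averaged per switch-domain sequence. Cy3-labelled switching-strand clusters on a modified Illumina MiSeq flow-cell were annealed to 100 nM quencher-labelled ATP aptamer, then imaged in selection buffer and again after 15 min with 500 uM ATP at 22 °C. Five such cycles were run, with NaOH stripping and re-annealing between them, and clusters outside 100-1000 RFU were excluded.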
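Note: ATP exposure 15 min at 22 °C before imaging.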

Sequence | switch fluorescence ratio
GTAAGACACA | 1.08
GTAAGACGTC | 0.995
GTAAGCGTAC | 1.66
GTAAGGGCAG | 0.989
GTAAGTATCG | 1.02
GTAAGTCTA | 1.01
GTAATAGAAG | 0.973
GTAATATCTA | 1.05
GTAATATTGG | 0.993
GTAATCAGTC | 0.991
GTAATCGGTC | 1.02
GTAATCGTAC | 1.12
GTAATCTCCG | 1.18
GTAATGAAGA | 0.983
GTAATGCTTC | 1.1
GTAATTCTTT | 0.98
GTAATTTGAA | 0.946
GTACAAGCGG | 1.04
GTACACGGGG | 0.953
GTACAGGGGT | 2.58
GTACCGAAGT | 1.04
GTACGAGTGT | 0.994
GTACGATCCA | 1.06
GTACGGGACC | 1.27
GTACGGGGTG | 0.972
GTACGTTTGG | 0.957

Sequence | switch fluorescence ratio
GTACTACATC | 1.04
GTACTAGCGT | 0.992
GTACTATTCG | 0.972
GTACTCTCCC | 1.48
GTACTGAGAT | 1.03
GTACTGCGG | 0.991
GTACTGGCTT | 1
GTACTGTGTC | 1.03
GTACTTGCGA | 1.04
GTAGAAAGCT | 1.21
GTAGAACTTA | 1.05
GTAGAGGCCT | 0.974
GTAGATAACG | 1.02
GTAGATATTG | 1
GTAGCCAGT | 0.975
GTAGCCTATT | 1.04
GTAGCGGGG | 0.997
GTAGCTGCCA | 1.02
GTAGCTGTGT | 0.997
GTAGGAGG | 0.952
GTAGGAGTA | 0.99
GTAGGGGAGG | 0.987
GTAGGGGGGC | 0.961
GTAGGTACCG | 0.982
GTAGGTCTGA | 0.964
GTAGGTTGGA | 1

Sequence | switch fluorescence ratio
GTAGTGTGAA | 0.988
GTAGTTCGAT | 1.03
GTAGTTGCTC | 1.01
GTAGTTTG | 0.978
GTAGTTTTTG | 1
GTATAAAGGT | 1.01
GTATAACAGC | 1.01
GTATAACCTT | 1.61
GTATAAGGGA | 0.968
GTATATAGCT | 0.97
GTATATTTGT | 0.956
GTATCAATAA | 0.997
GTATCAGTAA | 0.981
GTATCGAGGC | 1.08
GTATCGGTGA | 0.995
GTATCTACGG | 1.09
GTATCTCCTG | 1.06
GTATGAATAG | 0.936
GTATGGAACG | 0.983
GTATGGGCTG | 1.05
GTATGTGCAG | 1.03
GTATTCACGG | 1.02
GTATTCTGCG | 1
GTATTGGACT | 0.948
GTATTTAGTA | 0.984
